Experimental data from PubChem BioAssay AID894 (National Center for Advancing Translational Sciences (NCATS), 2007).
In all, about 150,000 compounds went through this assay and about 6,500 (4.3%) were called active. This list was built around the results that the source calls inconclusive (neither active nor inactive); the mix of calls is not that of the screen. The call rests on the fitted dose curve; in most records, active means well fitted inhibition curve with a large enough effect (not every such curve was filed as active); inconclusive means small, poorly fitted or top-dose-only effect, or another doubt; inactive means no such curve, though single readings can be large or run the other way. No potency is given beside an inconclusive call; the fits are too rough.

target: 15-hydroxyprostaglandin dehydrogenase [NAD(+)] (Homo sapiens) (UniProt P15428); assay: qHTS Assay for Inhibitors of HPGD (15-Hydroxyprostaglandin Dehydrogenase); conditions: purified HPGD, NADH fluorescence kinetic, PGE2 substrate; activity change, negative = inhibition: hits give low values
In short: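 NADH formation kinetics: reaction with 30 uM PGE2 and 1 mM NAD+ (final), 20 nM enzyme, Tris-HCl pH 8 with Tween 20, after 15 min compound preincubation at room temperature. Fluorescence change, last versus first of five reads.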
On the % scale 0 is the no-effect control and ±100 the full control effect; potency means the concentration at half of the fitted maximal effect; tags describe the fitted curve by direction and shape.

Chain of UniProt P15428 (P15428 whole entry, looked up): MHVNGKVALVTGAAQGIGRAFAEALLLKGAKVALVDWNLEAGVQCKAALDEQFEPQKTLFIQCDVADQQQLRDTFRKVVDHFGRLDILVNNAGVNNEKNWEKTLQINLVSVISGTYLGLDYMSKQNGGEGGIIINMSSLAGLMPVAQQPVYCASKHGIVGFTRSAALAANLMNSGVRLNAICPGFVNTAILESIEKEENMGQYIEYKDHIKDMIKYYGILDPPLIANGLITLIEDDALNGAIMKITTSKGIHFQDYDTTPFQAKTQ

SMILES	Potency	activity change, negative = inhibition
O=C(c1ccc(S(=O)(=O)c2ccccc2)cc1)N1CCCCCC1	active: 17.8 µM	–
O=C(Cc1cn2ccsc2n1)Nc1ccccc1Oc1ccccc1	–	inactive: -15.5%
C=CCN(CCNP(=O)(OCC)OCC)CP(=O)(OCC)OCC	–	inactive: -1.53%
C=CCOC(=O)C1=C(C)NC(SCC(=O)Nc2ccccc2)=C(C#N)C1c1ccco1 (configuration not stated)	inconclusive [inhibitor, partial curve]	–
CCCC1S/C(=N/N=C/c2ccco2)NC1=O (configuration not stated)	inconclusive [inhibitor, partial curve, poor fit]	–
CCc1sc(NC(=O)COC)nc1-c1ccccc1	inconclusive [inhibitor, single point]	–
CCOc1ccc(C2CC(c3ccc(CC)cc3)n3nc(N)nc3N2)cc1 (configuration not stated)	inconclusive [inhibitor, partial curve]	–
Cc1ccc(Nc2c(-c3ccc(C)o3)nc3cnccn23)cc1	inconclusive [inhibitor, partial curve]	–
COc1ccc(C(C)=O)cc1CSc1nnc(Nc2ccc(C)cc2C)s1	inconclusive [inhibitor, single point]	–
Cc1cccc2c1nc(-c1ccccc1)n1cnnc21	inconclusive [inhibitor, partial curve]	–
COc1ccc(-c2nn(-c3ccccc3)cc2C(=O)O)cc1OC	inconclusive [inhibitor, partial curve]	–
O=C(NC1CCCC1)c1csc2c1CCCC2	active: 15.8 µM	–
COc1ccc(OC)c2c(N3CCN(C)CC3)cc(C(F)(F)F)nc12	inconclusive [inhibitor, partial curve, poor fit]	–
CCOC(=O)Cc1c(C)nc2cc(-c3ccc(C)cc3)[nH]n2c1=O	inconclusive [inhibitor, partial curve]	–
CCOc1cc2[nH]c(=S)n(Cc3ccc(C(=O)NCCOC)cc3)c(=O)c2cc1OCC	inconclusive [inhibitor, partial curve]	–
COc1ccc(NC(=O)CSc2ncnc3c2cnn3Cc2ccccc2)cc1OC	–	inactive: 3.92%
Brc1ccc(Oc2nsnc2N2CCOCC2)cc1	–	inactive: -15.2%
COc1ccc(/C=C(\C#N)C(=O)OCC(=O)NC(C)c2ccccc2)cc1 (configuration not stated)	inconclusive [inhibitor, partial curve]	–
Cc1ccccc1N=Cc1cc2c(cc1O)OC(N)=C(C#N)C2c1ccccc1 (configuration not stated)	inconclusive [inhibitor, partial curve]	–
CCN(CC)CC#CCC(C)(c1ccccc1)c1ccccc1	–	inactive: -11.2%
COc1ccccc1N(CC(=O)Nc1cccnc1)S(C)(=O)=O	–	inactive: -5.77%
Cc1ccc(SCc2ccc(C(=O)NCc3cccnc3)cc2)cc1	inconclusive [inhibitor, partial curve]	–
COc1cccc(-c2ccc(-c3noc(-c4cccs4)n3)c(OC)n2)c1	inconclusive [inhibitor, partial curve]	–
COc1ccc(Cl)cc1NC(=S)NCc1ccco1	active: 12.6 µM	–

SMILES	Potency	activity change, negative = inhibition
COC(=O)Nc1nnc(/C=C/c2ccccc2)s1	inconclusive [inhibitor, partial curve]	–
Cc1cccc(NC(=O)Cc2noc3ccccc23)c1C	–	inactive: -10.6%
CCc1nnc(N2C(=O)c3cccc4cccc(c34)C2=O)s1	inconclusive [inhibitor, partial curve]	–
OCCSc1ncnc2c1oc1ccccc12	active: 25.1 µM	–
CCOC(=O)C1CCN(C(=O)c2cnn3c(C)cc(C)nc23)CC1	inconclusive [inhibitor, partial curve]	–
COc1cc(C2C3=C(CC(C)(C)CC3=O)Nc3c2c(=O)[nH]c(=O)n3Cc2ccccc2)ccc1O (configuration not stated)	inconclusive [inhibitor, partial curve]	–
O=C(CSc1nnc(-c2ccccc2O)o1)Oc1ccc(Br)cc1	inconclusive [inhibitor, partial curve]	–
CCCCCCCC/C=C\C/C=C\C=C\C(O)CCCC(=O)O (configuration not stated)	–	inactive: -4.5%
O=C(/C=C(\O)c1ccccc1)c1ccccc1O	active: 20 µM	–
COc1cc(C(=O)NCc2ccccc2)cc(Br)c1OC	active: 22.4 µM	–
CS(=O)(=O)N(Cc1ccccc1)c1ccc(C(=O)N2CCc3ccccc3C2)cc1	inconclusive [inhibitor, single point]	–
CCOCC(=O)Nc1ccc(C)c(Cl)c1	active: 15.8 µM	–
Cc1ccc2nc(SCC(=O)Nc3cc(C)on3)[nH]c2c1	–	inactive: -6.87%
Cn1c(CCNC(=O)c2ccco2)nc2cc(NC(=O)c3ccco3)ccc21	–	inactive: -16.4%
N#Cc1c(-c2ccccc2)cc2nc3ccccc3n2c1N	inconclusive [inhibitor, partial curve]	–
COCCCNc1nc(SCc2ccccc2)nc2sc3c(c12)CCC3	–	inactive: -12.3%
Clc1ccccc1/C=C\c1ccnc2ccccc12	inconclusive [inhibitor, partial curve]	–
CCCC[C@@H]1C[C@H]1C(NC(=O)c1cccs1)c1ccccc1C(F)(F)F (some centres not stated)	inconclusive [inhibitor, partial curve]	–
CSc1nc(N)nc(SCCS(=O)(=O)c2ccc(Cl)cc2)c1C#N	–	inactive: -28.6%
COc1ccccc1N(C(=O)c1snc(C(N)=O)c1N)C(C(=O)NC1CCCC1)c1ccco1 (configuration not stated)	inconclusive [inhibitor, partial curve]	–
C/C(=C\C[Si](C)(C)C)CCC=O	inconclusive [inhibitor, single point]	–
CCC(C)NC(=O)C1c2cc(OC)c(OC)cc2C(=O)N(C)C1c1ccc(OC)cc1 (configuration not stated)	–	inactive: -10.6%
COC(=O)c1ccc(NC(=O)c2ccccc2NS(=O)(=O)c2ccccc2)cc1	inconclusive [inhibitor, partial curve]	–
Cc1ccc(-n2cc(C(=O)c3cc(Cl)ccc3O)cc(C#N)c2=O)cc1	–	inactive: -23.1%

SMILES	Potency	activity change, negative = inhibition
O=C(O)CC1S/C(=N/N=C/c2ccc(-c3ccc(Cl)cc3[N+](=O)[O-])o2)NC1=O (configuration not stated)	active: 8.91 µM	–
COc1ccc(NC(=O)CN2CCC(C)CC2)c([N+](=O)[O-])c1	–	inactive: -9.25%
Fc1ccc2nc(Nc3nc4cc5c(cc4s3)OCCO5)sc2c1	inconclusive [inhibitor, partial curve]	–
O=C(c1ccccc1Cl)N(C(=O)c1ccccc1Cl)c1nccc(-c2cccs2)n1	inconclusive [inhibitor, partial curve]	–
COc1ccc(S(=O)(=O)N(C(C)=O)c2ccc3oc(=O)sc3c2)cc1	active: 20 µM	–
O=C1Nc2ccccc2CCC1Sc1nnc(-c2ccc(Cl)cc2)s1 (configuration not stated)	inconclusive [inhibitor, single point]	–
COc1ccc2[nH]c3c(=O)n(Cc4ccco4)cnc3c2c1	inconclusive [inhibitor, single point]	–
CC1(C)CC(=NOC(=O)c2ccccc2)CC(C)(C)N1O	–	inactive: -9.19%
O=C(Cc1cnn(-c2ccccc2)c1)c1ccc(O)c(O)c1O	active: 28.2 µM	–
COC(=O)c1[nH]c2cccc(OC)c2c1NC(=O)CN(C)CC1OCCO1	inconclusive [inhibitor, partial curve]	–
Cc1ccc(SCc2[nH]nc3c2C(c2cccnc2)C(C#N)=C(N)O3)cc1 (configuration not stated)	–	inactive: -24.2%
CNC1C(OC2C(O[C@@H]3C(O)C(O)[C@@H](N=C(N)N)C(O)C3N=C(N)N)OC(C)[C@@]2(O)CO)OC(CO)C(O)C1O (some centres not stated)	–	inactive: -10.2%
COc1cc2c(cc1OC)C(c1ccc3c(c1)OCO3)C1=C(CC(C)(C)CC1=O)N2 (configuration not stated)	inconclusive [inhibitor, partial curve]	–
Cc1nn(-c2ccccc2)c2sc(C(=O)OC3CCOC3=O)cc12 (configuration not stated)	inconclusive [inhibitor, single point]	–
COc1cc(C(=O)OCC(=O)NCc2ccc(F)cc2)cc(NC(=O)c2cccs2)c1OC	inconclusive [inhibitor, partial curve]	–
CCCCCCCCNC(=O)/C(C#N)=C/c1ccc2c(c1)OCCO2	inconclusive [inhibitor, partial curve]	–
N#Cc1c(N2CCCCC2)nc(N2CCCCC2)c2c1CCN(Cc1ccccc1)C2	inconclusive [inhibitor, partial curve]	–
COc1ccc2o/c(=N\O)c(C(=O)Nc3ccccc3OC)cc2c1	active: 12.6 µM	–
Cc1ccc(C(=O)NC(N2CCCC2)C(Cl)(Cl)Cl)cc1 (configuration not stated)	inconclusive [inhibitor, partial curve, poor fit]	–
CCOC(=O)CCCOC(=O)c1ccc(S(=O)(=O)N(C)C)cc1	–	inactive: -13%
COc1cccc(-n2c(=O)c3cc(OC)c(OC)cc3n(CC(=O)Nc3cc(C)[nH]n3)c2=O)c1	inconclusive [inhibitor, single point]	–
CSc1nc2sc3c(c2c(=O)[nH]1)CCCC3	inconclusive [inhibitor, partial curve]	–
CCn1nc(NC(=O)c2ccccn2)c2cc3cc(C)ccc3nc21	inconclusive [inhibitor, partial curve, poor fit]	–
O=C(CCCc1c[nH]c2ccccc12)Nc1ccc2ccccc2c1	–	inactive: -18.8%
